# Test results from ChEMBL document CHEMBL4888484, “Replenishing the malaria drug discovery pipeline: Screening and hit evaluation of the MMV Hit Generation Library 1 (HGL1) against asexual blood stage Plasmodium falciparum ,using a nano luciferase reporter read-out” (2022).
# The whole screen tested about 150,000 compounds, of which about 540 (0.36%) showed an effect of 50% or more. The list shows a part of the results.
# Test system: Plasmodium falciparum
# Assay: Primary screen in NF54 nanoGlo assay, in single point, at 2uM, 72h; a lower Z score goes with more inhibition
# Assay type: functional, Erythrocyte
# Conditions: timepoint 72 hour
SMILES,% Inhibition [%],Z score
C[C@@H](C(=O)N1CCCCC1)N(c1ccc2c(c1)OCCO2)S(C)(=O)=O,-12,1.94
CN([C@H]1CCc2ccccc21)S(=O)(=O)c1cccs1,2,-0.24
Cc1sc(N)nc1-c1ccc(OCCN2CCOCC2)cc1,-4,0.59
CC(=O)Nc1cn2c(N)nc(C(=O)Nc3ccc(C)cc3)c2nn1,-12,1.58
Cc1c(Cl)ccc2c(C(=O)N[C@@H]3CCNC3)cc(-c3ccco3)nc12,4,-0.6
CN(c1ccc(N)cc1)c1ccc(C(N)=O)nn1,-12,1.84
Cn1ccc(NC(=O)c2sccc2S(=O)(=O)N2CCCC[C@@H]2CCO)n1,0,-0.06
Cc1c(NC(=O)C2CCC2)c(=O)n(-c2ccccc2)n1C,1,-0.14
COc1cc(Br)ccc1C1NC(=O)C2COCCN21 (centres undefined),38,-5.16
C#CCN(C[C@H]1CCCO1)C(=O)Nc1ccccc1-c1nnnn1C1CC1,-7,0.99
CCc1ccc(C2c3c(n[nH]c3O)CC(C)(O)C2C(=O)Nc2ccccc2)cc1 (centres undefined),3,-0.38
O=S(=O)(N[C@@H]1C=CCCC1)C1COC1,-3,0.41
NC(=O)c1cnc2n1CCN(C(=O)c1nc3c(s1)CCCC3)C2,-18,2.31
Cc1ccc(NC(=O)c2ccc(C)c3ccccc23)cc1-c1nc2ncccc2o1,-16,1.87
O=S(=O)(CCC1CCCO1)NC1CCN(CC2CCCC2)C1 (centres undefined),1,-0.19
CC(C)CC(CO)NC(=O)NC1CCOC1c1ccc(F)c(F)c1 (centres undefined),-6,0.72
O=C(c1oc(C2CC2)nc1C(F)F)N1CCOc2ccncc21,3,-0.56
Cc1cccc(C(=O)NCCC2CCS(=O)(=O)CC2)c1O,-1,0.12
COc1ccc(C(=O)N[C@@H]2CCC[C@@H]2C(=O)NC2CCCC2)cc1,-8,1.07
COCCN(C)c1nnnn1Cc1cc(Cl)c2c(c1)OCCO2,-12,2.31
Cn1c(=O)[nH]cc(C(=O)Nc2ccc(N3CCOCC3)cc2)c1=O,-3,0.57

SMILES,% Inhibition [%],Z score
CS(=O)(=O)N1CC(CS(=O)(=O)N2CC(C3CC3)C2C2CC2)C1 (centres undefined),-2,0.33
CCOC(=O)c1c(CN2CCN(c3ncccn3)CC2)nc2ccccc2c1-c1ccccc1,-8,0.91
CN(C)c1cccc(C(=O)N2CCC3(CC2)Nc2ccc(Cl)cc2-n2cccc23)c1,-7,0.96
O=C(NCCn1cccn1)[C@H]1CCN(c2ccc(C(F)(F)F)cn2)C1,-1,0.28
O=C(c1cc(F)ccc1Cl)N1CCCN([C@H]2CCN(CC3CC3)C2=O)CC1,-13,1.7
CCCN1C(=O)c2cc(C(=O)N3CCN(C)CC3)nn2C[C@@]1(C)C(=O)NC1CCCC1,16,-1.84
COc1cc(N/C(=N\S(=O)(=O)Cc2ccccc2)Nc2nc(C)cc(C)n2)cc(OC)c1,-19,2.54
COc1ccc(-c2cc3n(n2)C[C@@](C)(C(=O)NCc2ccccc2)N(Cc2ccccc2Cl)C3=O)cc1,17,-2.69
CC(C)NC(=O)NCC[C@H]1CCCN(Cc2ccco2)C1,1,-0.1
CC(C)CC1OCC2(COC(=O)c3cccnc3)COC(CC(C)C)N12 (centres undefined),-24,2.78
O=C(CN1CCN(Cc2ccc(F)cc2Cl)C1=O)N1CCN(c2ccccc2)CC1,-5,0.99
Cc1cnc(-n2cnnc2)c(-c2ccc3c(c2)OCCO3)c1,4,-0.74
O=C(NC[C@@]12CCC[C@H]1N(Cc1ccccc1)C(=O)CC2)c1ncccn1,-6,0.77
CC1COCC(C)N1c1nnc(NC(=O)c2ccc(Cl)cc2)s1 (centres undefined),-4,0.61
O=c1nc(CN2CCC[C@H]2C(F)(F)F)[nH][nH]1,-16,1.39
CN(C)Cc1ccc(O)c(CCc2ccccc2)n1,64,-4.36
Nc1nc(-c2ccccn2)nn1C(=O)CCC(=O)c1ccc(F)cc1F,-4,0.48
O=C1OC2(CCN(Cc3cccc4nonc34)CC2)CN1CCOc1ccccc1,-15,2.71
Cc1nn(-c2cccc(F)c2)c(N2CCN(C(C)C)CC2)c1CN(C(=O)CCC1CCCC1)C(C)C,-1,0.15
O=C(Nc1ccnn1Cc1cccs1)c1ccc([C@@H]2CCCN2)s1,5,-0.62
O=C(NCc1cccnn1)N1CCCC1C1CCCO1 (centres undefined),-13,1.17
